Assay [1] addresses T1, PI3Kα H1047R (Homo sapiens (Human), UniProt P42336, H1047R). The experiment in a line: biochemical. To be noted: PI3KαH1047RIC50, ADP-Glo; ATP 25 μM; PIP2 50 μg/mL; 1 hour at room temperature.
Assay [2] concerns the target T1, PI3Kα H1047R. To be noted: read-out: PI3KαH1047RIC50; ADP-Glo; ATP 25 μM; PIP2 50 μg/mL; 1 hour at room temperature. (ADP-Glo turns the ADP formed in a reaction into a luminescent signal.)

Read-outs that look alike come from different tables or passages of the source.

Consider `N#Cc1cc(NC(=O)c2cc(F)cc(C(F)(F)F)c2)c2c3c1CCN3C(=O)NC2c1cc(Cl)ccc1Cl` (single isomer, unassigned) [YL101-P2], for which the IC50 at PI3Kα H1047R [1] was under 250 nM.
`O=C(Nc1cc(-c2nnn[nH]2)c2c3c1C(c1cc(F)ccc1Cl)NC(=O)N3CC2)c1cc(F)cc(C(F)(F)F)c1` (stereo not drawn) [YL085] had an IC50 on PI3Kα H1047R [1] of 250 to 10000 nM.
On the same count and under the same terms, then `Cn1nc2c(-c3c[nH]nc3F)cc(NC(=O)c3cc(F)cc(C(F)(F)F)c3)c3c2c1C(=O)NC3c1cc(F)ccc1Cl` (stereo not drawn) [YL113], with 250 to 10000 nM; and `Cn1nc2c(C#N)cc(NC(=O)c3cc(F)cc(C(F)(F)F)c3)c3c2c1C(=O)NC3c1cc(F)ccc1Cl` (single isomer, unassigned) [YL102-P2], with under 250 nM; and `O=C(Nc1cc(Br)c2c3c1C(c1cc(F)ccc1Cl)NC(=O)N3CC2)c1cc(F)cc(C(F)(F)F)c1` (single isomer, unassigned) [YL079-P2], with under 250 nM.
The molecule `N#Cc1cc(NC(=O)c2cc(F)cc(C(F)(F)F)c2)c2c3c1CCN3C(=O)NC2c1cc(Cl)ccc1Cl` (single isomer, unassigned) [YL101-P1] showed an IC50 at PI3Kα H1047R [1] of over 10000 nM.
Turning to `COc1cc(NC(=O)c2cc(F)cc(C(F)(F)F)c2)c2c3c1CCN3C(=O)NC2c1cc(F)ccc1Cl` (stereo not drawn) [YL078], the IC50 at PI3Kα H1047R [1] is 250 to 10000 nM.
The molecule `Nc1cc(-c2nc3cc(Cl)ccc3[nH]2)c2c3c1CCN3C(=O)NC2c1cc(F)ccc1Cl` (stereo not drawn) [YL099] came in with an IC50 on PI3Kα H1047R [1] of 250 to 10000 nM.
With `O=C(Nc1cc(-c2cn[nH]c2C(F)F)c2c3c1C(c1cc(F)ccc1Cl)NC(=O)N3CC2)c1cc(F)cc(C(F)(F)F)c1` (stereo not drawn) [YL075], on PI3Kα H1047R [1], the IC50 fell in the range of 250 to 10000 nM.
Molecule `N#Cc1c(-c2cc(NC(=O)c3cc(F)cc(C(F)(F)F)c3)c3c4c2CCN4C(=O)NC3c2cc(Cl)ccc2Cl)ccc2ncnn12` (single isomer, unassigned) [YL109-P2] showed an IC50 on PI3Kα H1047R [1] of under 250 nM.
At PI3Kα H1047R [1], `CP(C)(=O)c1cc(NC(=O)c2cc(F)cc(C(F)(F)F)c2)c2c3c1CCN3C(=O)NC2c1cc(F)ccc1Cl` (stereo not drawn) [YL084] came in with an IC50 of 250 to 10000 nM.
Regarding `Cn1nc2c(C#N)cc(NC(=O)c3cc(F)cc(C(F)(F)F)c3)c3c2c1C(=O)NC3c1cc(F)ccc1Cl` (single isomer, unassigned) [YL102-P1], the IC50 against PI3Kα H1047R [1] was over 10000 nM.
Consider `Nc1cc(-c2nc3cc(Cl)c(Cl)cc3[nH]2)c2c3c1CCN3C(=O)NC2c1cc(F)ccc1Cl` (stereo not drawn) [YL100], for which, at PI3Kα H1047R [1], the IC50 lay within 250 to 10000 nM.
The same measure, in the same setting: then `O=C(Nc1cc(Br)c2c3c1C(c1cc(F)ccc1Cl)NC(=O)N3CC2)c1cc(F)cc(C(F)(F)F)c1` (single isomer, unassigned) [YL079-P1], with 250 to 10000 nM.
`O=C(Nc1cc(-n2cc(F)cn2)c2c3c1C(c1cc(F)ccc1Cl)NC(=O)N3CC2)c1cc(F)cc(C(F)(F)F)c1` (stereo not drawn) [YL082] came in with an IC50 at PI3Kα H1047R [1] of 250 to 10000 nM.
`Cn1nc2c(C#N)cc(NC(=O)c3cc(F)cc(C(F)(F)F)c3)c3c2c1C(=O)NC3c1cc(Cl)ccc1Cl` (single isomer, unassigned) [YL111-P2] gave an IC50 against PI3Kα H1047R [1] of under 250 nM.
For the molecule `O=C(Nc1cc(-n2ccc(C(F)(F)F)n2)c2c3c1C(c1cc(F)ccc1Cl)NC(=O)N3CC2)c1cc(F)cc(C(F)(F)F)c1` (stereo not drawn) [YL080], on PI3Kα H1047R [1], the IC50 lay within 250 to 10000 nM.
Molecule `N#Cc1c(-c2cc(NC(=O)c3cc(F)cc(C(F)(F)F)c3)c3c4c2CCN4C(=O)NC3c2cc(F)ccc2Cl)cc(F)c2ncnn12` (stereo not drawn) [YL149] gave an IC50 at PI3Kα H1047R [1] of under 250 nM.
`N#Cc1c(-c2cc(NC(=O)c3cc(F)cc(C(F)(F)F)c3)c3c4c2CCN4C(=O)NC3c2cc(F)ccc2Cl)ccc2ncnn12` (single isomer, unassigned) [YL108-P1] returned an IC50 on PI3Kα H1047R [1] of over 10000 nM.
In the case of `Cn1nc2c(-c3cn[nH]c3C(F)F)cc(NC(=O)c3cc(F)cc(C(F)(F)F)c3)c3c2c1C(=O)NC3c1cc(F)ccc1Cl` (stereo not drawn) [YL112], on PI3Kα H1047R [1], the IC50 was in the range of 250 to 10000 nM.
As to `CC(C)(O)c1cc(NC(=O)c2cc(F)cc(C(F)(F)F)c2)c2c3c1CCN3C(=O)NC2c1cc(F)ccc1Cl` (stereo not drawn) [YL089], at PI3Kα H1047R [1], the IC50 fell in the range of 250 to 10000 nM.
On to `O=C1NC(c2cc(F)ccc2Cl)c2c(Nc3nccc4c(C(F)(F)F)cc(F)cc34)cc(NC(=O)C(F)(F)F)c3c2N1CC3` (stereo not drawn) [YL087], for which, at PI3Kα H1047R [1], the IC50 lay in the range of 250 to 10000 nM.
On the same count and under the same terms, then `Cn1nc2c(-c3cc(C(F)(F)F)n[nH]3)cc(NC(=O)c3cc(F)cc(C(F)(F)F)c3)c3c2c1C(=O)NC3c1cc(F)ccc1Cl` (stereo not drawn) [YL105], with 250 to 10000 nM; and `O=C(Nc1cc(-n2cc(C(F)(F)F)nn2)c2c3c1C(c1cc(F)ccc1Cl)NC(=O)N3CC2)c1cc(F)cc(C(F)(F)F)c1` (stereo not drawn) [YL083], with 250 to 10000 nM; and `N#Cc1c(-c2cc(NC(=O)c3cc(F)cc(C(F)(F)F)c3)c3c4c2CCN4C(=O)NC3c2cc(F)ccc2Cl)ccc2ncnn12` (single isomer, unassigned) [YL108-P2], with under 250 nM.
The same measure, in the same setting: the same measure for `N#Cc1c(-c2cc(NC(=O)c3cc(F)cc(C(F)(F)F)c3)c3c4c2CCN4C(=O)NC3c2cc(Cl)ccc2Cl)ccc2ncnn12` (single isomer, unassigned) [YL109-P1]: over 10000 nM.
`O=C(Nc1cc(O)c2c3c1C(c1cc(F)ccc1Cl)NC(=O)N3CC2)c1cc(F)cc(C(F)(F)F)c1` (stereo not drawn) [YL076] returned an IC50 against PI3Kα H1047R [1] of under 250 nM.
As to `O=C(Nc1cc(-c2ccn[nH]2)c2c3c1C(c1cc(F)ccc1Cl)NC(=O)N3CC2)c1cc(F)cc(C(F)(F)F)c1` (stereo not drawn) [YL054], the IC50 on PI3Kα H1047R [2] is under 250 nM.
With `Cc1ccccc1C1NC(=O)c2cccc3ccc(NC(=O)c4csc5ccccc45)c1c23` (stereo not drawn) [YL004], the IC50 on PI3Kα H1047R [2] lay within 250 to 10000 nM.
Take `N#Cc1ccc(-c2cc(NC(=O)c3cc(F)cc(C(F)(F)F)c3)c3c4c2CCN4C(=O)NC3c2cc(F)ccc2Cl)c(N)n1` (stereo not drawn) [YL134]: at PI3Kα H1047R [2], the IC50 is under 250 nM.
Turning to `O=C(Nc1cc(-n2cc(C(F)(F)F)cn2)c2c3c1C(c1cc(F)ccc1Cl)NC(=O)N3CC2)c1cc(F)cc(C(F)(F)F)c1` (stereo not drawn) [YL081], the IC50 at PI3Kα H1047R [1] lay in the range of 250 to 10000 nM.
On to `N#Cc1cc(N)ccc1-c1cc(NC(=O)c2cc(F)cc(C(F)(F)F)c2)c2c3c1CCN3C(=O)NC2c1cc(F)ccc1Cl` (stereo not drawn) [YL150], for which the IC50 on PI3Kα H1047R [2] was under 250 nM.
`Cn1nc2c(C#N)cc(NC(=O)c3cc(F)cc(C(F)(F)F)c3)c3c2c1C(=O)NC3c1cc(Cl)ccc1Cl` (single isomer, unassigned) [YL111-P1] registered an IC50 against PI3Kα H1047R [1] of over 10000 nM.
As to `O=C(Nc1cc(NC2COC2)c2c3c1C(c1cc(F)ccc1Cl)NC(=O)N3CC2)c1cc(F)cc(C(F)(F)F)c1` (stereo not drawn) [YL027], on PI3Kα H1047R [2], the IC50 is under 250 nM.
On the same count and under the same terms, the same measure for `N#Cc1c(N)cccc1-c1cc(NC(=O)c2cc(F)cc(C(F)(F)F)c2)c2c3c1CCN3C(=O)NC2c1cc(F)ccc1Cl` (stereo not drawn) [YL133]: under 250 nM.
In the case of `[N-]=[N+]=Nc1cc(NC(=O)c2cc(F)cc(C(F)(F)F)c2)c2c3c1CCN3C(=O)NC2c1cc(F)ccc1Cl` (stereo not drawn) [YL011], the IC50 at PI3Kα H1047R [2] was under 250 nM.
